# PMC6919601, “Identification of Plasmodium dipeptidyl aminopeptidase allosteric inhibitors by high throughput screening” (PLoS ONE, 2019)
# Hit rate of the full screen: of about 110,000 compounds, about 230 (0.21%) showed an effect of 50% or more. This is one part of the list.
# Biological target: DPAP1 (Plasmodium falciparum, UniProt Q8IIJ9)
# Experiment: primary screen, percent inhibition; read by cleavage of a fluorogenic dipeptide substrate; higher = more effect of the substance
# Design: species or system P. falciparum D10 trophozoite lysates; single well
# 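Further: 30 min substrate incubation versus DMSO and 10 µM JCP410 controls.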
# Chain of DPAP1 (Q8IIJ9 whole entry, looked up): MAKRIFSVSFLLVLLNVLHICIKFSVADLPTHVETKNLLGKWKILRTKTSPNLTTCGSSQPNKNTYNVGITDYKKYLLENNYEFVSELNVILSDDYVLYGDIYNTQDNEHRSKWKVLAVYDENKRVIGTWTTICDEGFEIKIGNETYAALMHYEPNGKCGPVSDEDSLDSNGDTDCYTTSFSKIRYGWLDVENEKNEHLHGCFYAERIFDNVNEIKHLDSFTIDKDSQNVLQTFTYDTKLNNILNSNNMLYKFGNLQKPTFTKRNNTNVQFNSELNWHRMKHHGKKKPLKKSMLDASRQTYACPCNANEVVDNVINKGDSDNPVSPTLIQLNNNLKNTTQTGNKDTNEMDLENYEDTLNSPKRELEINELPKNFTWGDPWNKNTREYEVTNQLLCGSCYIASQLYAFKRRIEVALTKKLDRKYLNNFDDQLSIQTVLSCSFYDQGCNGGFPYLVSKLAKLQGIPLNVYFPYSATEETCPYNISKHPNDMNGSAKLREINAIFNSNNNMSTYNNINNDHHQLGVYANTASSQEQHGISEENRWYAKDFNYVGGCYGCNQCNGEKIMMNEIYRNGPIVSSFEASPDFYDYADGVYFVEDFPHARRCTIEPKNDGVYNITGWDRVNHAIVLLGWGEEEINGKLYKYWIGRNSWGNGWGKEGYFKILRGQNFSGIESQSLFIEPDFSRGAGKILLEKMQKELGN
row,Structure (SMILES),% Inhibition @ 10 uM [%]
1,CCOc1cc(/C=C2/SC(=O)N(CC)C2=O)c(Cl)cc1OC,-0.62
2,COc1ccc(C2C(C(=O)c3ccc(F)cc3)=C(O)C(=O)N2CC2CCCO2)cc1 (centres unmarked),-1.22
3,O=C(NCCCc1ccccc1)C1CCN(c2nnc(-n3cccc3)s2)CC1,1.15
4,O=C(Nc1ccc2ccccc2c1)/C(=C/c1ccc2c(c1)OCO2)NC(=O)c1ccco1,-0.736
5,Cc1cccc(Oc2nc3c(C)cccn3c(=O)c2/C=C(\C#N)S(=O)(=O)c2ccccc2)c1C,3.63
6,N#Cc1cccc2c1[nH]c1ccc(Cl)cc12,-2.2
7,Oc1cccc(CN2CCc3ccccc3C2)c1,6.33
8,COc1ccc(C(=O)NCC(c2ccco2)N2CCCC2)cc1 (centres unmarked),5.2
9,CC1(C(=O)O)Cc2ccccc2C(=O)O1 (centres unmarked),-3.53
10,Cc1ccc(-c2csc(-c3cc4cc(Br)cc(Br)c4oc3=O)n2)c(C)c1,-6.07
11,C=C(C)Cn1c(C(C)NC(=O)c2ccc(Cl)cc2)nc2ccccc21 (centres unmarked),2.17
12,O=C(CN(c1cc(Cl)cc(Cl)c1)S(=O)(=O)c1ccccc1)N1CCCCC1,-5.82
13,O=C(c1cc(-c2ccccc2)[nH]n1)N1CCN(C(=O)c2ccc(Br)o2)CC1,0.745
14,O=C(Nc1ccc(C(=O)N2CCCC2)cc1)C1CC1c1ccc(Cl)cc1 (centres unmarked),1.59
15,Cc1cc(C)n2nc(SCc3c(F)cccc3Cl)nc2n1,-5.8
16,OC1CCN(CCc2ccccc2)CC1,1.62
17,CCOC(=O)C1=C(C)N=c2s/c(=C\c3ccc(N(C)C)cc3)c(=O)n2C1c1ccc(OC)cc1 (centres unmarked),2.22
18,CC1CCCCN1C(=O)CSc1nnc(-c2ccc(F)cc2)o1 (centres unmarked),6.13
19,c1ccc(-c2nnc(COc3cccc4ccccc34)o2)cc1,-1.22
20,Cn1c(=O)c2c(-c3ccccc3)n(CCc3c[nH]c4ccccc34)cc2n(C)c1=O,2.41
21,CC(=O)Nc1ccc(C(=O)Nc2cccc(C)c2C)cc1,-1.79
22,CC(C)(CO)NC(=O)c1ccc2c(c1)C(=O)c1ccccc1-2,-3.53

row,Structure (SMILES),% Inhibition @ 10 uM [%]
1,O=C(NCCCSC1CCCCC1)c1csc2c1CCCC2,12.2
2,NCCNC(=O)c1c(NC(=O)c2ccccc2)sc2c1CCCC2,-9.28
3,CCOc1ccc2c(=O)c(-c3ccc4c(c3)OCCCO4)c(C)oc2c1,-0.622
4,Nc1nonc1C(=O)NCc1ccco1,20.5
5,Cc1nc2sc(C(=O)c3ccccc3)c(N)c2c(C)c1C(=O)Nc1ccccc1,-0.759
6,O=C(O)c1ccccc1NC(=O)C12CC3CC(CC(C3)C1)C2,-5.44
7,COc1ccc(CNC(=O)c2cnn3c2NC(c2ccc(OC)cc2)CC3C(F)(F)F)cc1 (centres unmarked),-9.05
8,CCO/C=N/c1oc(C)c(C)c1C#N,1.5
9,O=C(Nc1scc(-c2ccccc2)c1C(=O)O)c1ccc(Cl)cc1,2.54
10,Cc1nc2c(c(C)c1CCC(=O)N1CCN(C(=O)c3ccco3)CC1)c(=O)n(C)c(=O)n2C,-1.3
11,COc1ccc(C)cc1N(CC(=O)NCc1ccccc1)S(=O)(=O)c1ccccc1,-1.61
12,CCn1cc2nc(SC)n(CCc3ccccc3)c(=O)c2n1,-0.873
13,COc1ccc(CN2CCC(C)CC2)c(C)c1C,-1.64
14,O=C1CCCC2=C1C(c1cccc([N+](=O)[O-])c1)Nc1ccc3ncccc3c12 (centres unmarked),0.937
15,CCOc1ccc(OCC)c(S(=O)(=O)N2CCN(c3cc(C)ccc3C)CC2)c1,-6.43
16,Cc1ccnc(NC(=O)C(C(F)(F)F)C(F)(F)F)c1,-3.03
17,CS(=O)(=O)N(CCc1ccccc1)CC(=O)NCc1ccccn1,-11.2
18,c1cc2c(cc1C1CCCC1)c1c3n2CCNC3CCC1 (centres unmarked),-1.61
19,OCC1CCCN(CCc2ccccc2)C1 (centres unmarked),-5.26
20,COC(=O)C1(O)CC(C)N(C)CC1C (centres unmarked),-1.86
21,CC(O)CN(Cc1c(F)cccc1Cl)CC(C)O (centres unmarked),-1.5
22,COc1ccc(NC(=O)C2CC(=O)N(C)/C(=N/c3cccc(Cl)c3)S2)cc1 (centres unmarked),0.873

row,Structure (SMILES),% Inhibition @ 10 uM [%]
1,O=C(Nc1cccc2c(S(=O)(=O)O)cccc12)c1ccccc1,-8.12
2,Cn1c(SCc2nc(-c3cccs3)no2)nnc1-c1ccc(Cl)cc1,-2.21
3,CCOc1cc2c(cc1OCC)C(C(=O)O)C(c1ccc(F)cc1Cl)N(C)C2=O (centres unmarked),5.12
4,C=CCOc1c(Br)cc(/C=C2/NC(=O)N(CC=C)C2=O)cc1OC,-7.25
5,C=CCOc1cccc(C2c3c(oc4ccc(F)cc4c3=O)C(=O)N2CCOC)c1 (centres unmarked),-1.33
6,O=[N+]([O-])/C=C\c1ccc(-c2ccc(Br)cc2)o1,2.13
7,CCOc1ccc(C(=O)Nc2c3c(nn2-c2ccc(Cl)cc2)CS(=O)(=O)C3)cc1,-3.83
8,CCC(C)NC(=O)C1CCC(CNS(=O)(=O)c2cccc3cccnc23)CC1 (centres unmarked),-2.42
9,C#CCN1C(=O)S/C(=C/c2ccc(N3CCCCC3)o2)C1=O,-3.75
10,CCOC(=O)C1CCCCN1Cc1ccsc1 (centres unmarked),-5.68
11,CCOc1ccccc1NC(=O)C1=C(C)NC(=O)NC1c1cc(OC)ccc1OC (centres unmarked),-2.07
12,COc1ccc(C2C(C(=O)Nc3ccccc3)=C(C)N=c3s/c(=C/c4cnn(C)c4)c(=O)n32)cc1 (centres unmarked),3.69
13,COc1ccc(CCNS(=O)(=O)c2cnc(Cl)c(Br)c2)cc1OC,-5.06
14,CN(C)CCN(C)C1CCN(CCc2ccccc2)CC1,-0.0953
15,Cc1cccc(Cl)c1OCCOCCN1CCCCC1,3.29
16,Cc1ccc(CNC(=O)c2cc3c(O)nc4ccccc4c3s2)cc1,-0.499
17,c1ccc(-c2nn(-c3ccccc3)c3ncc4[nH]c5ccccc5c4c23)cc1,-0.0372
18,Nc1nc(COc2ccc(F)cc2Cl)nc(N2CCOCC2)n1,-6.84
19,Clc1cccc2c(N3CCN(Cc4ccccc4)CC3)cnnc12,2.09
20,COC(=O)c1cccc(NC(=O)CCC2CCCCC2)c1,3.29
21,Cc1ccc(CCN2CC(C(=O)NCc3cccnc3)CC2=O)cc1 (centres unmarked),1.62
